The text below walks through data of PubChem BioAssay AID2060492 (Molecular Pharmacology Branch, DTP, NCI, 2025).

The assay relates to 695427-040-R-J1-PDC complex spheroids, viability percent T/C. The experiment in a line: Anticancer human tumor 695427-040-R-J1-PDC patient-derived colon adenocarcinoma cell line growth inhibition [GQUAD]. The settings on record: for IC50: compound alone; for viability, T/C: stronger effect = lower value. From the text: DNA G-quadruplex Stabilizer Agents in Combinations in Complex Spheroids
A high-throughput screen of multi-cell type tumor spheroids was designed to identify active combinations of DNA G-quadruplex stabilizer agents and targeted small molecules. Complex spheroids include a stromal component modeled by human endothelial cells (HUVEC) and fibroblasts modeled by human mesenchymal stem cells (MSCs). The concentration ranges selected for each drug and investigational agent were based upon clinically achievable concentrations if the clinical Cmax of the agent was known.
Compounds. The drugs and investigational agents: pidnarulex (CX-5461; NSC782164), APTO-253 (NSC789042), BRACO-19 (NSC847499), peposertib (NSC802822), ceralasertib (NSC780249), elimusertib (NSC800525), camonsertib (NSC841442), AZD-1390 (NSC803789), olaparib (NSC753686), talazoparib (NSC767125), ART-558 (NSC835418), sotorasib (NSC818433), MRTX-1133 (NSC836407), SN-38 (NSC673596), topotecan (NSC609699), etoposide (NSC141540), doxorubicin (NSC123127), gemcitabine (NSC613327), 5-fluorouracil (NSC19893), paclitaxel (NSC125973), vemurafenib (NSC761431), panobinostat (NSC761190), R-306465 (JNJ-16241199; NSC773264), adavosertib (NSC754352), TP-3654 (NSC805149), carboplatin (NSC241240), KSQ-4279 (NSC840948), and staurosporine (NSC755774) were obtained from the National Cancer Institute (NCI) Developmental Therapeutics Program Chemical Repository (34). The FDA-approved anticancer drug set is available from the NCI Developmental Therapeutics Program. […] The stock solutions were prepared in dimethyl sulfoxide (DMSO, Sigma-Aldrich, St. Louis, MO, cat. D2650) at 800-fold the tested concentration and stored at -70 degrees C prior to their use. All drugs and investigational agents were tested over a range starting from a high concentration at or near the clinical Cmax and decreasing in half-log increments. If the clinical Cmax for an agent had not been determined, the highest concentration tested was 10 microM.
2.3 Cell Culture. All cells were maintained in an incubator at 37 degrees C and 5% CO2 with 95% humidity. The PDC lines were cultured according to standard operating procedures established by the NCI PDMR. All PDCs were thawed and cultured in Matrigel-coated flasks prepared with a working solution of 1X Ham's F-12 nutrient mix, without supplementation (Invitrogen, cat. 11765054), 100 U/mL penicillin-streptomycin (Invitrogen, cat. 15140122), and 2.5% Matrigel (Corning Inc., cat. 354248) for the first three passages. The 857933-349-R-J2-PDC line was cultured in 6C/Colon 1B media, which includes advanced DMEM/F-12 (Thermo Fisher Scientific, cat. 12634028), 10 mM HEPES (Thermo Fisher Scientific, cat. 15630080), 1X GlutaMAX supplement (Thermo Fisher Scientific, cat. 35050061), 0.1 mg/mL primocin (InvivoGen, cat. ant-pm-2), 10% defined fetal bovine serum, heat inactivated (HyClone Laboratories Inc., cat. SH30070.03HI), 50% L-WRN conditioned media (ATCC, cat. CRL-3276), 1.25 mM N-Acetyl-L-cysteine (Sigma-Aldrich, cat. A9165), 10 mM nicotinamide (Sigma-Aldrich, cat. N0636), 1X B-27 supplement (Thermo Fisher Scientific, cat. 17504044), 1X N-2 supplement (Thermo Fisher Scientific, cat. 17502048), 10 microM Y-27632 dihydrochloride (Tocris Bioscience, cat. 1254), and 50 ng/mL human EGF recombinant protein (Thermo Fisher Scientific, cat. PHG0311). The 485176-168-R4-J1-PDC line was cultured in Panc media, which includes all 6C/Colon 1B media components plus 100 ng/mL human FGF-10 (Thermo Fisher Scientific, cat. 100-26), 500 nM SB-431542 (Selleckchem, cat. S1067), and gastrin (Tocris, cat. 3006).
[…]

Certain results were filed several times, with different values. This is not the full list of results. An entry can have further records. Results that share an entry are repeated measurements in other runs, samples, wells, individuals or studies. Additions like (4×) count equal records among those shown. Where only a bound is given, the exact number is not on record here.
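Note: spheroids exposed to compounds for seven days before readout.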

In general, IC50 refers to the concentration that gives 50% inhibition. Turning to `Cc1cnc(CNC(=O)c2c(=O)c3ccc(N4CCCN(C)CC4)nc3n3c2sc2ccccc23)cn1`, the IC50 (run of 04/16/2024) is listed as 4.89 µM, > 10 µM, 6.05 µM, 7.12 µM, 4.41 µM, 3.93 µM, 6.21 µM, 6.94 µM, 4.29 µM, 4.44 µM, 8.09 µM.
The viability, T/C is the result in the treated group divided by that in the control group, in per cent. As to `O=C(NO)c1cnc(N2CCN(S(=O)(=O)c3ccc4ccccc4c3)CC2)nc1`, the IC50 is recorded as 457 nM, > 10 µM, 467 nM. Also, the viability, T/C (compound alone 1 µM) is given as 5.02%, 94.8%, 3.55%. Besides, the viability, T/C (compound alone 3.16 µM) was 0.3%, 78%, 0.28%. The viability, T/C (compound alone 10 µM) is reported as 0.33%, 72.2%, 0.47%.
With `Cc1[nH]c2ccc(F)cc2c1-c1nc2c3cccnc3c3ncccc3c2[nH]1`, the viability, T/C (compound alone 0.0316 µM) is 105, 112, 102 (2×), 85.6, 107, 94.3, 88.1, 93.4, 96, 99.7, 101%.
With `CC(=O)O[C@H]1C(=O)[C@@]2(C)[C@H]([C@H](OC(=O)c3ccccc3)[C@]3(O)C[C@H](OC(=O)[C@H](O)[C@@H](NC(=O)c4ccccc4)c4ccccc4)C(C)=C1C3(C)C)[C@]1(OC(C)=O)CO[C@@H]1C[C@@H]2O`, the concentration for half-maximal inhibition (IC50) is > 10 µM (2×) and 462 nM. Further, the viability, T/C (compound alone 1 µM) was 72.4%, 3.24%, 89.7%. Moreover, for the setting “compound alone 3.16 µM”, the viability, T/C was 61.3%, 0.31%, 83.7%. Also, the viability, T/C (compound alone 10 µM) is reported as 57%, 0.29%, 72.7%.
